± gives the standard deviation. Only a part is listed here, and it is no random draw.
Test system: MIWI (PIWIL1) piRISC loaded with L1MC piRNA (30 nt)
Experiment: pre-steady-state target cleavage rate (min^-1); MIWI and MILI are mouse PIWI proteins and EfPiwi is from a freshwater sponge; tags in brackets are library labels; higher = faster piRNA-guided slicing of the target
Settings: guide: L1MC piRNA 5'p-UAACUAAAUACUAUGCAAGCUGUAGGUCCU; auxiliary factor: 500 nM mouse GTSF1
In short: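 The pre-steady-state cleavage rate was obtained by Cleave-'n-Seq with a burst-and-steady-state fit. A transcribed, DNA-blocked target RNA library (0.1 nM) was mixed with 1 nM active affinity-purified piRISC carrying one synthetic guide, with or without 500 nM GTSF1 partner protein, in HEPES–potassium acetate buffer at 33 °C for 0–8 or 0–960 min. Uncleaved targets were sequenced and normalised to depth and to weakly complementary targets, with three trials pooled and k3 capped at 0.0001 min^-1.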

Row | Sequence | pre-steady-state target cleavage rate
1 | UCCUGGAUGUGCUUGCAUAGUGAUUUAGUUA | 0.00393 ± 0.0038
2 | UCCUGGUACAGCUUGCAUUAGUAUUUAGUUA | 0.00882 ± 0.006
3 | UCCUCCUACAGCUACCAUAGUAUUUAGAAA | 0.0705 ± 0.023
4 | UCCUGGAUGUGCAUGCAUUGUAUUUAGUUA | 0.00495 ± 0.0033
5 | UCCUGGUACAGCUUGCAUAGUUAAUAGAAA | 0.023 ± 0.0089
6 | AGGACCUACAGCUUCGUUAGUAUUUAGUUA | 0.105 ± 0.014
7 | UGGACCUACAGCUUGCUAUAGUAUUUAGUUA | 0.0205 ± 0.0066
8 | UCCUGGAUCAGCUUGCAUAGUAUAUACAAA | 0.0666 ± 0.022
9 | AGGACCUACAGCUUGCAUGAGUAUUUAGUUA | 0.194 ± 0.068
10 | UCCUGGAUGUGGUUGCAUAGUAUUUAGAUA | 0.00533 ± 0.0039
11 | UCCUGGAUGACGAUGCAUAGUAUUUAGUAA | 0.00983 ± 0.0051
12 | UCCUGGAUGUCGAACGAUAGUAUUUAGUUUA | < 0.0001
13 | UCCUGGAUGAGCUUGCAAAGUAUUUACAAA | 0.0453 ± 0.012
14 | UCCACCUACAGCUUGCAUAGUAUUUACAAA | 0.296 ± 0.044
15 | UCCACCUACAGCUUCCAUAGUAUUUAGUUA | 0.292 ± 0.088
16 | UCCACCUACAGCUUGGUUAGUAUUUUCAAA | 0.0329 ± 0.012
17 | AGGACCUACAGCUUGCAUAGUAAAUAGAAA | 0.439 ± 0.094
18 | UGCACCUACAGCUUCCAUAGUAUUUAGUUA | 0.177 ± 0.061
19 | UCCUGGAUGUGCUUCCAUAGUAUUUAGUUA | 0.0109 ± 0.004

Row | Sequence | pre-steady-state target cleavage rate
20 | UCCACCUACAGCUUGCAUUAGUAUUUAGUUA | 0.0935 ± 0.034
21 | UCCUGGAUGAGCUUCCAUAGUAAUUAGUUA | 0.00538 ± 0.0047
22 | UCCACGUACAGCUUGCAUAGUAUUUUCAAA | 0.253 ± 0.033
23 | UCCUGGUACAGCUUGCUUAGUAUUUACAAA | 0.0951 ± 0.021
24 | UCCUGGAUGAGCUUCCAUUGUAUUUAGUUA | 0.00797 ± 0.0053
25 | UGGACCUACAGGAAGCAUAGUAUUUUCAAA | 0.0254 ± 0.008
26 | UCCUCCUACAGCUUGCAUUCUAUUUUCAAA | 0.0121 ± 0.0059
27 | UCGACCUACAGGUUGCAUAGUAUUUUCAAA | 0.134 ± 0.021
28 | UCGACCUACAGCUUGCUUAGUAUUUACAAA | 0.309 ± 0.042
29 | UCGACCUACAGCUUCCAUAGUAUUAAGUUA | 0.0786 ± 0.026
30 | AGGACCUACAGGAUGCAUAGUAUUUUCAAA | 0.319 ± 0.048
31 | UGGACCUACAGCUUGCGAUAGUAUUUAGUUA | 0.0216 ± 0.0064
32 | UCGACCUACAGCUUCCAUAGUAUUUUGUUA | 0.0549 ± 0.02
33 | UCCUGCUAGAGCUUCCAUAGUAUUUAGUUA | 0.333 ± 0.079
34 | UCCUGGAUGUCGUUACAUAGUAUUUAGUUA | 0.00793 ± 0.0028
35 | UCCUGGAACACGUUGCAUAGUAUUUAGAAA | 0.0137 ± 0.0067
36 | AGGACCUACAGCUUCGUUAGUAUUUAGAAA | 0.00714 ± 0.0039
37 | UCCUGCAUCAGCUUGCAUAGUAUUUUCAAA | 0.328 ± 0.06

Source: the supplement of paper PMC10338343
